# Experimental data taken from PubChem BioAssay AID624417 (National Center for Advancing Translational Sciences (NCATS), 2012).
# Screen size: about 410,000 compounds; about 6,400 (1.6%) were called active. This list was built around the results that the source calls inconclusive (neither active nor inactive); the mix of calls is not that of the screen. Calls come from the whole dose curve; as a rule, active = well fitted inhibition curve with a large enough effect; inconclusive = small, poorly fitted or top-dose-only effect; inactive = no such curve, though single readings can be large or run the other way. No potency is given beside an inconclusive call; the fits are too rough.
# Biological target: Glucagon-like peptide 1 receptor (Homo sapiens) (UniProt P43220)
# Sequence of UniProt P43220 (P43220 whole entry, looked up): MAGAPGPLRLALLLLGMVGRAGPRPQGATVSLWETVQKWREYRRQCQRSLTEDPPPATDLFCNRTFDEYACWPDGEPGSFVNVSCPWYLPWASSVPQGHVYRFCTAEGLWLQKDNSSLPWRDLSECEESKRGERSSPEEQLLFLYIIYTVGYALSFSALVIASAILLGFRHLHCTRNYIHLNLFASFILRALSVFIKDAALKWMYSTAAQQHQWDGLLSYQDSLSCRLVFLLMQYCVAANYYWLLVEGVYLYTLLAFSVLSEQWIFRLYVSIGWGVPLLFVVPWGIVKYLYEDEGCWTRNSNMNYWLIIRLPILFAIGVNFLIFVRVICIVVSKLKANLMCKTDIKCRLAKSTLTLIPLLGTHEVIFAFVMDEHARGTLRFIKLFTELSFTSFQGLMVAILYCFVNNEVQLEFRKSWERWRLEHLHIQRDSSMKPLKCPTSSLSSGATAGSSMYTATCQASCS
# Assay: qHTS of GLP-1 Receptor Inverse Agonists (Inhibition Mode); note: nearly all actives have a fitted effect of over 55% in size
# Conditions: HEK293 GLP-1R CRE-luciferase, luminescence, 24 h, GLP-1R form is constitutively active; series mostly up to 38.3 µM
# Method in brief: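 Luminescence readout: a drop in cAMP-driven luciferase signal flags inverse agonism at a constitutively active GLP-1R stably expressed in HEK293. Compound exposure lasted 24 hr at 37 deg C, 5% CO2.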
# Potency is the fitted concentration of half-maximal effect; tags give direction and shape of the fitted curve.
row,Compound,Potency
1,CCOC(=O)/C=C/C(=O)OCC(=O)Nc1ccc(OC)c(Cl)c1,inactive
2,C=CC[C@H](CC(=O)N(CCO)Cc1ccccc1)C(=O)N[C@H](COC(=O)[C@@H](CC=C)Cc1ccc(F)cc1)Cc1ccccc1,inactive
3,COc1ccc(N(Cc2ccccc2)C(=O)c2nc(S(C)(=O)=O)ncc2Cl)cc1,active: 10 µM
4,COc1ccc(C(CNC(=O)c2cccc(NS(=O)(=O)c3ccccc3)c2)N2CCCC2)cc1 (stereo unspecified),"inconclusive [inhibitor, single point]"
5,O=[N+]([O-])c1ccc(S(=O)(=O)Nc2nc(-c3ccccc3)cs2)cc1,"inconclusive [inhibitor, partial curve, poor fit]"
6,COc1ccc(C(C(=O)NCc2ccc(F)cc2)N(C(=O)c2csnn2)C2CC2)cc1 (stereo unspecified),"inconclusive [inhibitor, full curve, poor fit]"
7,COc1ccccc1CCNC(=O)c1cccc(S(=O)(=O)N2CCc3ccccc3C2)c1,"inconclusive [inhibitor, single point]"
8,CN(C)C(=O)CCc1ccc2c3c([nH]c2c1)[C@]1(CCC2CCCC2)[C@@H](C(=O)N2CCOCC2)C[C@H](CC(=O)NCc2cccc(C(F)(F)F)c2)C(=O)N1CC3,"inconclusive [inhibitor, single point]"
9,CCc1sc2nc(SCC(=O)Nc3cc(C)on3)n(-c3cccc(OC)c3)c(=O)c2c1C,inactive
10,C=CCN1C(=O)/C(=C\c2ccc(OC(=O)c3ccco3)c(OC)c2)SC1=S,inactive
11,C=C(C)C(=O)Nc1cccc(C2=NOC3(C2)C[C@H](C(N)=O)N(C(=O)c2ccccc2C(=O)c2ccccc2)C3)c1 (stereo partly specified),inactive
12,O=[N+]([O-])c1cc(Cl)ccc1N1CCN(c2cccc(C(F)(F)F)c2)CC1,"inconclusive [inhibitor, single point]"
13,Cc1ccc(OCCn2cc(C(=O)c3cccs3)c3ccccc32)cc1,"inconclusive [inhibitor, single point]"
14,O=C(NNC1=NCCN1Cc1ccccc1)c1cccc(C(F)(F)F)c1,inactive
15,O=C(CCN1CCN(c2ccccc2)CC1)c1ccc(Cl)cc1,inactive
16,O=C(Nc1ccc(Oc2ccccc2)nc1)C1CCCCN1Cc1cccc(O)c1 (stereo unspecified),"inconclusive [inhibitor, single point]"
17,CC(C)C(=O)NC(Nc1cccc2cccnc12)C(Cl)(Cl)Cl (stereo unspecified),"inconclusive [inhibitor, partial curve, poor fit]"
18,Cc1ccc(S(=O)(=O)CCC(=O)NCCc2ccc(Cl)cc2)cc1,"inconclusive [inhibitor, single point]"
19,CCOc1ccc(C2=NC(c3ccncc3)=Nc3ccc(C)cc3N2)cc1OCC,inactive
20,O=C(NCC(=O)N1CCN(Cc2c(F)cccc2Cl)CC1)c1cccc(Cl)c1,"inconclusive [inhibitor, partial curve, poor fit]"
21,Cn1c(NCCc2ccncc2)nc2cc(-c3ccccc3)sc2c1=O,inactive

row,Compound,Potency
1,O=C(COC(=O)CC1CC2CCC1C2)NCc1ccc(Cl)cc1 (stereo unspecified),"inconclusive [inhibitor, single point]"
2,O=C(Nc1ccc(F)cc1)NC1CCCc2ccccc21 (stereo unspecified),"inconclusive [inhibitor, partial curve, poor fit]"
3,Fc1cccc(/C=N/Nc2ccc3ccccc3n2)c1,"inconclusive [inhibitor, single point]"
4,CC(=O)Nc1ccc(N=Nc2ccc(O)cc2)cc1,"inconclusive [inhibitor, single point]"
5,O=C(Nc1ccc2c(c1)OCO2)c1cc(C2CCCCN2S(=O)(=O)Cc2ccccc2)on1 (stereo unspecified),"inconclusive [inhibitor, partial curve, poor fit]"
6,CC(C)(O)c1[nH]c2ccc(C(F)(F)F)cc2c1C(C)(C)O,"inconclusive [inhibitor, partial curve, poor fit]"
7,Cc1nc2c(C(=O)NCCC(C)C)c[nH]n2c(=O)c1Cc1ccccc1F,"inconclusive [inhibitor, single point]"
8,COc1ccc2ccccc2c1/C=N/NC(=S)NCCN1CCOCC1,"inconclusive [inhibitor, single point]"
9,CSc1nn(CC(=O)Nc2ccccc2F)c(N)c1S(=O)(=O)c1ccccc1,"inconclusive [inhibitor, single point]"
10,O=C(CSc1cc(Cl)ccc1Cl)Nc1ccc(N2CCOCC2)cc1,"inconclusive [inhibitor, single point]"
11,O=[N+]([O-])C(=C1SCCS1)C(=C(Cl)Cl)N1CCCCC1,"inconclusive [inhibitor, partial curve, poor fit]"
12,Cc1ccc(CNC(=O)C(Cc2ccccc2)NS(=O)(=O)c2cccs2)cc1 (stereo unspecified),"inconclusive [inhibitor, partial curve, poor fit]"
13,COc1cc(/C=c2\s/c(=C(/C#N)C(=O)N3CCCC3)n(-c3ccccc3)c2=O)ccc1O,inactive
14,Cc1ccn2c(NC3CCCCC3)c(-c3ccc(SC4CCCCC4)cc3)nc2c1,"inconclusive [inhibitor, single point]"
15,COc1ccccc1NC(=O)C1=C(C)Nc2nnnn2C1c1ccccn1 (stereo unspecified),"inconclusive [inhibitor, single point]"
16,CCC1(c2ccc(Cl)cc2)NC(=O)N(CC(=O)NC2CCCCCC2)C1=O (stereo unspecified),"inconclusive [inhibitor, single point]"
17,O=C(CCl)N(c1ccc(Cl)cc1)c1c[nH]c2ccccc12,"inconclusive [inhibitor, single point]"
18,O=S(=O)(Nc1nc2ccccc2[nH]1)c1ccc(Cl)cc1,"inconclusive [inhibitor, full curve]"
19,CCN1CCN(C(c2ccc(F)cc2)c2nnnn2Cc2cccs2)CC1 (stereo unspecified),"inconclusive [inhibitor, partial curve, poor fit]"
20,Cc1sc(NC(=O)C2C3C=CC(C3)C2C(=O)O)c(C(N)=O)c1-c1ccc(C(C)C)cc1 (stereo unspecified),"inconclusive [inhibitor, partial curve, poor fit]"
